# Source: publication PMC12040169 (PLOS Biology, 2025)
# The list shows a part of the results.
# Test system: T1, C. trachomatis L2/434/Bu expressing GFP (CTL2-GFP)
# T1 construct: L2/434/Bu GFP intracellular growth in HeLa cells
# Set-up: species or system HeLa; C. trachomatis total inclusion area by high-content imaging, normalised to DMSO
# Conditions: total inclusion area; 28.5 h, 10 µM; inhibitor
# Summary of the method: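 Following bulk GFP and resorufin fluorescence reads, infected cells were fixed, Hoechst-stained and imaged on a high-content platform. Inclusion total area and number per well served as growth proxies; nuclei counts indicated host viability. MICs were derived as for the fluorescence assay.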
row,SMILES,% of control remaining
1,O=c1[nH]nc2c(N3CCc4ccccc4C3)nccn12 [CBK288497],90.6476
2,Cn1c(SCc2c(Cl)cccc2[N+](=O)[O-])nnc1-c1ccc(NC(=O)c2ccccc2Cl)cc1 [CBK264983],105.823
3,O=C(NCc1nc2ccccc2s1)c1ccc2c(c1)OCCO2 [CBK295325],84.7009
4,O=C(Cc1cccc(O)c1)N1CCCC1c1nc2ccccc2[nH]1 (stereo not shown) [CBK282346],105.312
5,CCN(CC)CCN1CCN(c2cc(-c3ccsc3)ncn2)CC1 [CBK036973],147.705
6,Cn1ccnc1CN1CCC2(C/C=C/Cc3ccccc3OCC(=O)NCCNC2=O)CC1 [CBK292180],98.4013
7,Brc1cccc(CSc2nnc(COc3ccccc3)n2Cc2ccccc2)c1 [CBK268250],87.2209
8,CN(CCCNC(=O)/C=N/O)CCCC(C)(C)C [CBK288480],56.5694
9,Cn1cc(-c2nc(C3CCCCCN3C(=O)c3cc(Cl)c[nH]3)no2)cn1 (stereo not shown) [CBK306396],102.019
10,CC(=O)c1ccc(NC(=O)Cn2cnc3c(sc4ncccc43)c2=O)cc1 [CBK287773],93.477
11,O=C(O)CCC(=O)N1CCN(S(=O)(=O)c2ccc(F)cc2)CC1 [CBK286956],93.2194
12,Fc1cccc(-c2nccnc2NCC2CC2)c1 [CBK036767],116.552
13,NS(=O)(=O)c1ccc(CNC(=O)C(Sc2ccccc2)c2ccccc2)cc1 (stereo not shown) [CBK264355],101.665
14,Cn1ccc(CNCc2c(Br)cc(F)c(F)c2N2CCCCC2)n1 [CBK304763],9.003
15,COc1ccc(C(NC(=O)CCc2ccccc2)c2ccc3cccnc3c2O)cc1 (stereo not shown) [CBK293942],98.3956
16,Cc1cc(NS(=O)(=O)c2ccc(NC(=O)C(c3ccccc3)c3ccccc3)cc2)no1 [CBK085112],80.5547
17,Cc1nnc(SCC(=O)Nc2cc(C(F)(F)F)ccc2N2CCOCC2)o1 [CBK266815],92.9103
18,O=C(O)C[S+]([O-])c1ccccc1C(=O)O (stereo not shown) [CBK263244],40.6775
19,Cc1ccccc1C(NC(=O)C1CCN(S(=O)(=O)C(C)C)CC1)c1ccccn1 (stereo not shown) [CBK059711],93.5051
20,CS(=O)(=O)Nc1ccc(-c2ccsc2)c2ccccc12 [CBK083742],84.652
21,CCOC(=O)CC1SC(NS(=O)(=O)c2ccc(Br)cc2)=NC1=O (stereo not shown) [CBK014126],105.857
22,Fc1ccc(-c2ccc(Nc3cccnc3)nc2)cc1Cl [CBK037642],108.271
23,O=C(O)CCC(CCC(=O)O)([N+](=O)[O-])[N+](=O)[O-] [CBK260956],97.5423
24,O=C(O)C(Cc1ccccc1)C(C(=O)O)c1ccccc1 (stereo not shown) [CBK286578],75.944
25,Cc1cc2occ(CC(=O)NCc3cc(C4CC4)[nH]n3)c2cc1C [CBK282576],98.8623
26,O=C(Nc1ccc2oc(-c3cccnc3)nc2c1)c1cccc(-c2cc3ccccc3oc2=O)c1 [CBK268612],105.71
27,COc1ccc(-n2c(S)nnc2-c2cccs2)cc1 [CBK266832],27.1735

row,SMILES,% of control remaining
1,COc1ccc(CNc2ccc(N3CCOCC3)c(C(=O)O)c2)c(OC)c1 [CBK269860],123.611
2,O=C(O)c1cccc(NS(=O)(=O)c2cccc([N+](=O)[O-])c2)c1 [CBK155711],99.4481
3,N#Cc1ccccc1COC(=O)c1cc(-c2ccc(/C=C/c3nc(O)c([N+](=O)[O-])c(=O)[nH]3)o2)ccc1Cl [CBK269115],78.3716
4,Cc1ccc(SC(C)C(=O)O/N=C(\N)c2ccccn2)cc1 (stereo not shown) [CBK268567],80.4445
5,Cc1cc(C)nc(-n2ncc(C#N)c2N)n1 [CBK270227],122.445
6,OC[C@H]1CCCN1c1nc(Br)cn2ccnc12 [CBK085496],111.729
7,COC(=O)c1cscc1NC(=O)c1cnc(-c2ccc(Cl)cc2)c(-c2ccco2)c1 [CBK036657],112.373
8,COCCNc1nc2c(c(N3CCCC(C#N)C3)n1)CCNCC2 (stereo not shown) [CBK307412],86.3156
9,O/N=C1\CSCc2ncccc21 [CBK007234],46.8065
10,CSc1nnc(NS(=O)(=O)c2ccccc2C)s1 [CBK144918],88.4092
11,Cc1csc2nc(CN3CCN(C(=O)c4ccccc4)CC3)cc(=O)n12 [CBK305019],89.2224
12,O=C(NC1CCCC1)c1ccc2c(=O)[nH]cnc2c1 [CBK287990],125.696
13,CC(=O)c1sc(NC(=O)c2ccccc2Oc2ccccc2)nc1C [CBK287314],94.2626
14,C[C@H](Cn1nc2c(cc1=O)CCCCC2)NC(=O)Cc1cccs1 [CBK284548],53.9214
15,O=C(C(CO)c1ccccc1)N1CCC2(CCN(CCCCOc3ccccc3)C2)C1 (stereo not shown) [CBK161722],89.5733
16,Cc1nc2cc(C(=O)N3CCC(c4ccncc4)CC3)ccc2s1 [CBK283513],60.6652
17,O=C(CN1CCN(CCCc2c[nH]c3ccc(F)cc23)CC1)N(c1ccccc1)C1CCCCC1 [CBK074710],75.8622
18,O=C(NC[C@H]1O[C@@H](CC(=O)N2CCN(c3ccc(F)cc3)CC2)[C@H](O)[C@@H]1O)C1CC1 [CBK288921],103.77
19,O=c1[nH]c(=O)n([C@H]2C[C@@H](O)[C@@H](CO)O2)cc1CO [CBK201332],100.438
20,Cc1n[nH]c(C)c1CCCCCOc1ccccc1F [CBK025736C],62.1908
21,Cc1ccc(OCC(=O)N2CCN(S(=O)(=O)c3ccc([N+](=O)[O-])cc3)CC2)cc1 [CBK264267],96.9926
22,O=c1cc(C(F)(F)F)c2ccc(OCc3ccc(Cl)cc3)cc2o1 [CBK058200],85.7208
23,COc1cc(C)c(Nc2cc(-c3ccc(C(N)=O)cc3)ncn2)cc1OC [CBK090784],94.3616
24,Cc1nccn1CCCn1cncc1-c1ccc2c(c1)CC(C)N2C (stereo not shown) [CBK281818],87.4098
25,C#CCNC(=O)C1CCN(c2nc3ccccc3n2CC=C)CC1 [CBK283925],71.8878
26,O=c1cc(CN2CCC(Cc3ccccc3)CC2)[nH]c(=O)[nH]1 [CBK126388],104.623
27,Cn1c2c(c(=O)n(C)c1=O)[C@H]1[C@H](O)[C@H](O)C[C@H]1[C@@H](C(O)c1ccccc1)N2 (stereo partly shown) [CBK303236],69.0001

row,SMILES,% of control remaining
1,O=C(CCc1ccccc1)N1CCCC1c1cccc(Cc2ccccc2F)n1 (stereo not shown) [CBK286208],86.5052
2,Nc1cccc(Sc2ncccn2)c1 [CBK085844],92.0101
3,Oc1cccc(-c2nccnc2NCc2cccc(C(F)(F)F)c2)c1 [CBK037014],84.8907
4,O=C(O)C1CCN(C(=O)NCCOc2ccccc2)CC1 [CBK156072],101.111
5,COc1ccc(/C=C(/C(=O)NCc2ccc(Cl)cc2Cl)c2ccccc2)cc1 [CBK265256],100.94
6,CCn1c(CN2CCC(c3cc(O)nc(N)n3)C2)nc2c(F)cccc21 (stereo not shown) [CBK304189],79.7841
7,Cc1nc(NS(=O)(=O)Cc2ccccc2[N+](=O)[O-])sc1C(=O)O [CBK045564],115.14
8,CS(=O)(=O)c1ccc(-c2cnc3[nH]c(=O)n(-c4ccc5[nH]ccc5c4)c3n2)cc1 [CBK064691],110.754
9,Cc1ccccc1C1(O)CCN(CC(O)c2ccc3c(c2)OCCCO3)CC1 (stereo not shown) [CBK286332],97.262
10,O=C(Nc1ccc(N2CCCCC2)c2ccncc12)c1cccc(-n2cnnn2)c1 [CBK297754],104.517
11,O=C(O)c1cn(CCN2C(=O)c3ccccc3C2=O)nn1 [CBK286543],86.469
12,O=C(O)CCCC(=O)N1N=C(c2cccs2)CC1c1cn(-c2ccccc2)nc1-c1ccccc1 (stereo not shown) [CBK296124],137.54
13,Cc1csc(NC(=O)c2ncoc2-c2cccs2)n1 [CBK283972],107.688
14,CCN(CC)C(=O)C1CCCN(C(=O)NCc2cc(OC)c(OC)c(OC)c2)C1 (stereo not shown) [CBK156130],86.9815
15,COCCN1C(=O)C2(CC(=O)N(CCCN3C(=O)CCC3=O)C2=O)c2ccccc21 (stereo not shown) [CBK075333],92.9888
16,O=C(CN1C(=O)S/C(=C\c2ccc(OCc3ccccc3F)cc2)C1=O)c1ccc(Cl)cc1 [CBK264632],97.2246
17,COc1ccc(CN2CCC(C(=O)NC(c3ccc(OC)nc3)c3ccccc3C)CC2)cc1 (stereo not shown) [CBK081445T],81.5612
18,CCNC(=O)N1CC2(CCN(CC(N)=O)CC2)c2ccccc21 [CBK126701],120.994
19,Cc1ccc(-n2cc(CN(C)CC3(C)COC3)cn2)cc1 [CBK281720],103.44
20,CC(C)(C)c1ccc(NC(=O)N2CCCN(Cc3ccccc3)CC2)cc1 [CBK085876],36.1413
21,Cc1cc(C)n(-c2nc3ccccc3nc2N2CCN(S(=O)(=O)c3ccccc3)CC2)n1 [CBK269399],114.505
22,Cc1ccc2cc(S(=O)(=O)NCCC(=O)O)ccc2c1 [CBK267569],95.8529
23,O=C(C1CCCCC1)N1CC(n2nc(-c3cccs3)ccc2=O)C1 [CBK283346],77.7068
24,COc1ccc(CNc2nc(-c3ccc(C)cc3)nn2C(=O)c2cccc([N+](=O)[O-])c2)cc1 [CBK268546],72.259
25,O=C(CCS(=O)(=O)Cc1ccccc1)n1nnc2ccccc21 [CBK268324],84.897
